According to the supplement of paper PMC7826260:
This is one part of the list. Cleavage of a single-stranded DNA pool by Rep nickase domains was read by sequencing (1 h at 37 °C, 3 µM enzyme); the outer parts of the 90-letter strands are left off. Values are log2 of uncut reads against the no-enzyme pool; strong cutting gives strongly negative numbers. There is no active / inactive call. Counts are relative to all reads; uncut strands gain when others are lost, and binding without cutting may add a little.

Tests used:
Test in all cases: uncleaved DNA left, log2 of reads against the no-enzyme library (log2 ratio); higher = less cleavage (more negative = more Rep cleavage of the k-mer); sequences stand for … in CTCGTCCG…ACCGGAGA
[1] = system: T1, Rep nickase domain of Muscovy duck circovirus
T1 sequence (residues 1-111 of Rep, tag left off): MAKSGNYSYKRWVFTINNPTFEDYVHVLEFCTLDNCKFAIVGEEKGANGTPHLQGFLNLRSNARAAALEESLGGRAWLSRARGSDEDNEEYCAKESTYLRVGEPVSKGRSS
Procedure: (§1)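 A pool of 90-nt single-stranded DNAs with seven random bases just before the constant AC of the nick site (name = the seven bases) was cut by 3 µM recombinant His6-SUMO-tagged Rep nickase domain (300 nM DNA, 50 mM HEPES pH 8.0, 50 mM NaCl, 1 mM MnCl2, 1 h, 37 °C, three replicates). Uncut DNA was amplified and sequenced.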

[2] = system: T2, Rep nickase domain of banana bunchy top virus
T2 sequence (residues 1-94 of Rep, tag left off): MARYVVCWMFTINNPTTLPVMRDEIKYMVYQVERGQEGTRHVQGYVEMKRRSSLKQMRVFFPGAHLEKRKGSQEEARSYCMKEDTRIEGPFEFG
Procedure: as §1

[3] = system: T3, Rep nickase domain of cabbage leaf curl virus
T3 sequence (residues 1-116 of Rep, tag left off): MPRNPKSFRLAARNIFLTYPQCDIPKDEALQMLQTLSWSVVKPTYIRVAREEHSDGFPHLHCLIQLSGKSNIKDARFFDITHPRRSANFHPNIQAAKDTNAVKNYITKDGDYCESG
Procedure: as §1

[4] = system: T4, Rep nickase domain of chickpea chlorotic dwarf virus
T4 sequence (residues 1-124 of Rep, tag left off): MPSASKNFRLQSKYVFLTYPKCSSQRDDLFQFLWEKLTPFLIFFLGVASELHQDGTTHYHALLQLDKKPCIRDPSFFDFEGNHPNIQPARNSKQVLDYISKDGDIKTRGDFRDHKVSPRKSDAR
Procedure: as §1

[5] = system: T5, Rep nickase domain of faba bean necrotic yellows virus
T5 sequence (residues 1-98 of Rep, tag left off): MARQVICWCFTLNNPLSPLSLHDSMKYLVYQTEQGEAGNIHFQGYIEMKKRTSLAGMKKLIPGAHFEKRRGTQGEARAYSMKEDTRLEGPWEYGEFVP
Procedure: as §1

[6] = system: T6, Rep nickase domain of maize striate mosaic virus
T6 sequence (residues 1-117 of Rep, tag left off): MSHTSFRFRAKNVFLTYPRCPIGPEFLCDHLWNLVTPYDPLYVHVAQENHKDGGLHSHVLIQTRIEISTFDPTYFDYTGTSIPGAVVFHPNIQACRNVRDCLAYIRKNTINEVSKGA
Procedure: as §1

[7] = system: T7, Rep nickase domain of porcine circovirus 2
T7 sequence (residues 2-116 of Rep, tag left off): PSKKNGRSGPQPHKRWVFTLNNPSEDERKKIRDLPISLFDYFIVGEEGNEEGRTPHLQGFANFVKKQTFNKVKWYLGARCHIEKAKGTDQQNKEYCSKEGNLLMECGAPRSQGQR
Procedure: as §1

[8] = system: T8, Rep nickase domain of tomato golden mosaic virus
T8 sequence (residues 1-124 of Rep, tag left off): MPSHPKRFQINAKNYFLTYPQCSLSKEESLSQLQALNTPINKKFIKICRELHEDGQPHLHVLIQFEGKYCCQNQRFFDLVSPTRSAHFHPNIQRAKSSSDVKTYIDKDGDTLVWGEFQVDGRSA
Procedure: as §1

[9] = system: T9, Rep nickase domain of tomato yellow leaf curl virus
T9 sequence (residues 1-136 of Rep, tag left off): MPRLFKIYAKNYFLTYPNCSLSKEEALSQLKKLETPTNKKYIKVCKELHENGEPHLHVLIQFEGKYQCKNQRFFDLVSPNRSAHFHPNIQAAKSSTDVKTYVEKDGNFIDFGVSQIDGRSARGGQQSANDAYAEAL
Procedure: as §1

[10] = system: T10, Rep nickase domain of wheat dwarf virus
T10 sequence (residues 1-137 of Rep, tag left off): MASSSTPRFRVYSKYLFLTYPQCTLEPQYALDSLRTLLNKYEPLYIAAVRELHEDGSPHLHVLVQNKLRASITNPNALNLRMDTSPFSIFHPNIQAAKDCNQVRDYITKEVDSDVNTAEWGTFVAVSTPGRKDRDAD
Procedure: as §1

Row | Sequence | uncleaved DNA left (log2) [1] | uncleaved DNA left (log2) [2] | uncleaved DNA left (log2) [3] | uncleaved DNA left (log2) [4] | uncleaved DNA left (log2) [5] | uncleaved DNA left (log2) [6] | uncleaved DNA left (log2) [7] | uncleaved DNA left (log2) [8] | uncleaved DNA left (log2) [9] | uncleaved DNA left (log2) [10]
1 | CTATGAT | -0.466 | 0.0238 | -0.479 | -0.0617 | 0.0315 | 0.745 | -1.2 | 0.052 | 0.00634 | 0.0859
2 | CGCTACC | -0.0884 | -0.0625 | -0.123 | -1.57 | -0.154 | -0.291 | -0.524 | -0.277 | -0.136 | -0.154
3 | TAACCGT | -0.0672 | -0.0663 | -1.89 | -2.79 | 0.0801 | -1.19 | -0.359 | -0.141 | 0.0117 | -0.331
4 | CTTAACA | 0.037 | 0.186 | -0.406 | -2.01 | -0.162 | -0.579 | -0.0182 | 0.0759 | 0.178 | 0.0961
5 | GTAGCCT | -0.000636 | 0.0644 | 0.317 | 0.667 | -0.0356 | 1.63 | -0.011 | 0.0569 | -0.0169 | 0.108
6 | CAGAAGC | 0.116 | 0.139 | -0.25 | -0.561 | 0.12 | -1.1 | 0.0715 | 0.0302 | 0.157 | 0.0427
7 | GATGAAC | 0.122 | 0.0545 | 0.215 | 0.747 | 0.0127 | 1.05 | 0.0741 | 0.0739 | 0.0416 | 0.0385
8 | CCCGCCC | -0.0797 | -0.13 | 0.15 | -0.296 | 0.00845 | -0.204 | -0.168 | 0.0332 | -0.0265 | -0.123
9 | GAGGGGT | 0.0523 | 0.0234 | 0.431 | 1.21 | -0.0208 | 1.8 | -0.0314 | 0.142 | -0.0419 | 0.0169
10 | ACTATTG | 0.0205 | -0.00263 | -0.471 | -0.235 | 0.0807 | -1.08 | 0.208 | -0.0242 | 0.0137 | -0.021
11 | GCTGATC | -0.0146 | -0.0958 | 0.126 | 0.528 | -0.089 | 0.863 | 0.0883 | -0.00612 | -0.0527 | -0.0693
12 | TAAGAGG | 0.126 | 0.0653 | 0.346 | 0.902 | -0.0474 | 0.802 | 0.113 | 0.156 | -0.0525 | 0.171
13 | CTGGCTG | 0.0576 | 0.0268 | 0.19 | 0.859 | 0.0238 | 1.46 | 0.148 | 0.0576 | -0.0738 | -0.0107
14 | CTCTACC | -0.234 | -1.58e-05 | -0.318 | -2.27 | 0.0553 | -0.702 | -0.969 | -0.0366 | -0.126 | -0.161
15 | TACGGCA | 0.142 | -0.0539 | -0.141 | -0.995 | -0.162 | -0.683 | -0.585 | -0.0535 | 0.0241 | -0.0158
16 | TTCTCTC | -0.0991 | -0.135 | 0.106 | 0.0242 | 0.0445 | -0.0745 | -0.146 | -0.0555 | -0.0825 | -0.113
17 | TTCTGTC | 0.101 | 0.0576 | 0.124 | -0.172 | -0.0242 | -0.773 | -0.106 | -0.224 | -0.0588 | 0.0429
18 | ACGGGTG | -0.211 | -0.195 | -0.629 | -0.334 | -0.253 | -0.774 | -0.0879 | -0.0942 | -0.0971 | -0.169
19 | AACGGCA | 0.0658 | -0.0117 | -0.107 | -0.437 | -0.0731 | -0.53 | -0.291 | -0.0283 | 0.0379 | 0.0458
20 | CGTGACC | 0.0498 | -0.046 | 0.0513 | 0.531 | -0.0645 | 0.392 | 0.0312 | -0.0515 | -0.172 | -0.0169
21 | GGGACTC | -0.0964 | 0.000357 | 0.837 | 2.02 | -0.0809 | 2.23 | 0.0572 | -0.0652 | -0.161 | 0.0401
22 | ACCAAAG | 0.0543 | 0.0717 | -0.59 | 0.525 | 0.0147 | -0.361 | 0.266 | 0.17 | 0.156 | 0.0668
23 | CTGAGGT | 0.131 | 0.0755 | 0.453 | 1.31 | 0.0458 | 1.4 | 0.0289 | 0.133 | 0.00343 | -0.0299
24 | TCTATTG | 0.0351 | 0.0343 | -0.401 | -0.608 | 0.0561 | -1.02 | 0.0803 | 0.031 | -0.0914 | -0.0364
25 | GTTATGG | 0.0849 | 0.0581 | 0.356 | 0.93 | 0.0906 | 1.14 | 0.173 | 0.0104 | 0.0425 | 0.0625
26 | TGTTGGC | 0.0847 | 0.0193 | -0.0107 | -0.135 | 0.0201 | -0.662 | 0.0809 | -0.0533 | 0.0724 | 0.0048
27 | CCTTCTG | 0.0471 | -0.046 | -0.286 | -0.327 | 0.176 | -0.64 | 0.0242 | -0.0546 | 0.0109 | -0.104
28 | CCACATG | 0.06 | -0.0715 | -0.461 | -0.545 | 0.0227 | -1.01 | 0.165 | 0.00751 | 0.107 | -0.14
29 | CTTCAGC | 0.0182 | -0.07 | -0.0049 | -0.0717 | 0.074 | -0.706 | 0.102 | 0.0595 | 0.0541 | 0.00369
